Laboratory results as given in patent US10299477B2 (priority 2015, dated 2019).

What was measured:
Type in all cases: in vivo
[1] = system: Blumeria graminis f sp. hordei; experiment: Test Example D: Powdery mildew on barley; conditions: for Test D control value (powdery mildew on barley): preventive, control value class
Source text: [Test Example D] Powdery Mildew on Barley
After the sprayed dilutions were dried, conidia of Blumeria graminis f sp. hordei were inoculated to the plants by shaking off.

Botrytis cinerea = experiment: Test Example B: Gray mold on tomato; conditions: for Test B control value (gray mold on tomato): preventive, control value class
Source text: [Test Example B] Gray Mold on Tomato
Seeds of a test plant (tomato variety: Oogata Fukuju) were planted followed by cultivating until three to five first leaves (true leaves) appeared.

Plasmopara viticola = experiment: Test Example G: Downy mildew on vine; conditions: for Test G control value (downy mildew on vine): 250 ppm spray (2.5 ml/pot), preventive, control value class; for Test G (control value class): 250 ppm spray
Source text: [Test Example G] Downy Mildew on Vine
Seeds of a test plant (grape variety: Neomuscat) were planted followed by cultivating until three to four first leaves appeared. […] After the sprayed dilutions were dried, a zoosporangia suspension (1-2×10^4 zoosporangia/ml) of Plasmopara viticola was inoculated to the plants by spraying.

Alternaia brassicicola = experiment: Test Example C: Alternaria sooty spot on cabbage; conditions: for Test C control value (Alternaria sooty spot on cabbage): preventive, control value class; for Test C (control value class): Alternaria sooty spot on cabbage
Source text: [Test Example C] Alternaria Sooty Spot on Cabbage
Seeds of a test plant (cabbage variety: Shikidori) were planted followed by cultivating until the cotyledons extended.

Puccinia recondita = experiment: Test Example E: Brown rust on wheat; conditions: for Test E control value (brown rust on wheat): preventive, control value class
Source text: [Test Example E] Brown Rust on Wheat

[2] = powdery mildew on barley, 250 ppm spray
[3] = gray mold on tomato, Botrytis cinerea, 250 ppm spray
[4] = downy mildew on vine, Plasmopara viticola, 7-10 days after inoculation
[5] = brown rust on wheat, Puccinia recondita, 250 ppm spray
[6] = Powdery mildew on barley, control value=100{1-(n/3)}
[7] = Gray mold on tomato, control value=100{1-(n/3)}
[8] = Downy mildew on vine, 2.5 ml/pot, evaluated 7-10 days after inoculation
[9] = Brown rust on wheat, control value=100{1-(n/3)}

Structure (SMILES)	Test D control value (powdery mildew on barley) ([1]; 250 ppm spray)	Test B control value (gray mold on tomato) (Botrytis cinerea; 250 ppm spray)	Test G control value (downy mildew on vine) (Plasmopara viticola; 7-10 days after inoculation)	Test C control value (Alternaria sooty spot on cabbage) (Alternaia brassicicola; 250 ppm spray)	Test E control value (brown rust on wheat) (Puccinia recondita; 250 ppm spray)	Test D (control value class) [1, 2]	Test B (control value class) (Botrytis cinerea; [3])	Test G (control value class) (Plasmopara viticola; [4])	Test C (control value class) (Alternaia brassicicola; 250 ppm spray)	Test E (control value class) (Puccinia recondita; [5])	other results
Cn1c(-c2c(F)cccc2F)c(-c2cc(OC3CCCCC3)ccc2Cl)ccc1=O [Compound 296]	L (L shows 50% or less of control values)	H (H shows more than 50% of control values)	L (L shows 50% or less of control values)	L (L shows 50% or less of control values)	L (L shows 50% or less of control values)						
CCn1c(-c2c(F)cc(OC)cc2F)c(-c2cccc(F)c2F)cc(Cl)c1=O [Compound 590]											Test D (control value class, powdery mildew on barley) ([1]; in vivo): H (H shows more than 50% of control values); Test B (control value class, gray mold on tomato) (Botrytis cinerea; in vivo): H (H shows more than 50% of control values); Test G (control value class, downy mildew on vine) (Plasmopara viticola; 250 ppm, sprayed 2.5 ml/pot before inoculation, evaluated 7-10 days after inoculation): L (L shows 50% or less of control values); Test C (control value class, Alternaria sooty spot on cabbage) (Alternaia brassicicola; in vivo): H (H shows more than 50% of control values); Test E (control value class, brown rust on wheat) (Puccinia recondita; in vivo): H (H shows more than 50% of control values)
Cn1c(-c2c(F)cc(F)cc2F)c(-c2cccc(F)c2F)cc(Cl)c1=O [Compound 559]						H (H shows more than 50% of control values)	H (H shows more than 50% of control values)	L (L shows 50% or less of control values)	H (H shows more than 50% of control values)	H (H shows more than 50% of control values)	
COCOc1ccc(Cl)c(-c2ccc(=O)n(C)c2-c2c(F)cccc2F)c1 [Compound 239]	H (H shows more than 50% of control values)	H (H shows more than 50% of control values)	H (H shows more than 50% of control values)	H (H shows more than 50% of control values)	H (H shows more than 50% of control values)						
CCn1c(-c2c(F)cc(F)cc2F)c(-c2cc(Cl)ccc2Cl)ccc1=O [Compound 354]	H (H shows more than 50% of control values)	H (H shows more than 50% of control values)	H (H shows more than 50% of control values)	H (H shows more than 50% of control values)	H (H shows more than 50% of control values)						
CCn1c(-c2c(F)cc(F)cc2F)c(-c2cc(F)ccc2F)ccc1=O [Compound 424]						H (H shows more than 50% of control values)	H (H shows more than 50% of control values)	L (L shows 50% or less of control values)	H (H shows more than 50% of control values)	H (H shows more than 50% of control values)	
CCn1c(-c2c(F)cc(OC)cc2F)c(-c2ccccc2Cl)ccc1=O [Compound 430]						H (H shows more than 50% of control values)	H (H shows more than 50% of control values)	H (H shows more than 50% of control values)	H (H shows more than 50% of control values)	H (H shows more than 50% of control values)	
CCn1c(-c2c(F)cc(F)cc2F)c(-c2ccc(OC)cc2Cl)cc(C)c1=O [Compound 750]											Test D (control value class) [1, 6]: H (H shows more than 50% of control values); Test B (control value class) (Botrytis cinerea; [7]): H (H shows more than 50% of control values); Test G (control value class) (Plasmopara viticola; [8]): H (H shows more than 50% of control values); Test C (control value class) (Alternaia brassicicola; control value=100{1-(n/3)}): H (H shows more than 50% of control values); Test E (control value class) (Puccinia recondita; [9]): H (H shows more than 50% of control values)
CCn1c(-c2c(F)cccc2F)c(-c2ccc(Br)cc2)cc(Br)c1=O [Compound 293]	H (H shows more than 50% of control values)	H (H shows more than 50% of control values)	L (L shows 50% or less of control values)	H (H shows more than 50% of control values)	H (H shows more than 50% of control values)						
O=c1c(Cl)cc(-c2cc(Cl)ccc2F)c(-c2c(F)cccc2F)n1CC(F)F [Compound 540]						H (H shows more than 50% of control values)	H (H shows more than 50% of control values)	L (L shows 50% or less of control values)	H (H shows more than 50% of control values)	H (H shows more than 50% of control values)	
Cn1c(-c2c(F)cc(F)cc2F)c(-c2cc(F)cc(F)c2)cc(Cl)c1=O [Compound 804]											Test D (control value class) [1, 6]: H (H shows more than 50% of control values); Test B (control value class) (Botrytis cinerea; [7]): H (H shows more than 50% of control values); Test G (control value class) (Plasmopara viticola; [8]): L (L shows 50% or less of control values); Test C (control value class) (Alternaia brassicicola; control value=100{1-(n/3)}): H (H shows more than 50% of control values); Test E (control value class) (Puccinia recondita; [9]): H (H shows more than 50% of control values)
CCn1c(-c2c(F)cc(OC)cc2F)c(-c2cc(OC)ccc2Cl)cc(Cl)c1=O [Compound 772]											Test D (control value class) [1, 6]: H (H shows more than 50% of control values); Test B (control value class) (Botrytis cinerea; [7]): H (H shows more than 50% of control values); Test G (control value class) (Plasmopara viticola; [8]): H (H shows more than 50% of control values); Test C (control value class) (Alternaia brassicicola; control value=100{1-(n/3)}): H (H shows more than 50% of control values); Test E (control value class) (Puccinia recondita; [9]): H (H shows more than 50% of control values)
COc1cc(F)c(-c2c(-c3cc(F)cc(F)c3Br)ccc(=O)n2C)c(F)c1 [Compound 823]											Test D (control value class) [1, 6]: H (H shows more than 50% of control values); Test B (control value class) (Botrytis cinerea; [7]): H (H shows more than 50% of control values); Test G (control value class) (Plasmopara viticola; [8]): L (L shows 50% or less of control values); Test C (control value class) (Alternaia brassicicola; control value=100{1-(n/3)}): H (H shows more than 50% of control values); Test E (control value class) (Puccinia recondita; [9]): H (H shows more than 50% of control values)
Cn1c(-c2c(F)cccc2F)c(-c2ccc(Cl)cc2)cc(Cl)c1=O [Compound 285]	H (H shows more than 50% of control values)	H (H shows more than 50% of control values)	L (L shows 50% or less of control values)	H (H shows more than 50% of control values)	H (H shows more than 50% of control values)						
O=c1ccc(-c2c(F)c(F)c(F)c(F)c2F)c(-c2c(F)cccc2F)n1CC(F)F [Compound 383]						L (L shows 50% or less of control values)	L (L shows 50% or less of control values)	L (L shows 50% or less of control values)	L (L shows 50% or less of control values)	L (L shows 50% or less of control values)	
CCCn1c(-c2c(F)cccc2F)c(-c2cc(OC)ccc2Cl)cc(Br)c1=O [Compound 401]						H (H shows more than 50% of control values)	H (H shows more than 50% of control values)	L (L shows 50% or less of control values)	H (H shows more than 50% of control values)	H (H shows more than 50% of control values)	
